Assay results: PubChem BioAssay AID1745845 (National Center for Advancing Translational Sciences (NCATS), 2022)
In all, about 360,000 compounds went through this assay and about 2,600 (0.72%) were called active. Inconclusive results, whose numbers are uncertain, are shown with a selection of clear calls. Calls come from the whole dose curve; as a rule, active = well fitted inhibition curve with a large enough effect; inconclusive = small, poorly fitted or top-dose-only effect; inactive = no such curve, though single readings can be large or run the other way. Potencies beside an inconclusive call are fits to weak or partial responses and may not hold up.

experiment: Primary qHTS for Inhibitors of ATXN expression; conditions: HEK-293 ATXN2-luciferase reporter, luminescence, 24 h; activity change, negative = inhibition: at 57 µM (top of the series); note: nearly all actives have a fitted effect of over 55% in size
In short: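 ATXN2-luciferase reporter cells (luciferase flanked by upstream and downstream ATXN2 gene portions) were treated 24 h at 37 °C with compounds at up to 57 uM. SteadyGlo luminescence gave expression; GF-AFC fluorescence gave viability.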
% is set by controls: 0 for no effect and ±100 for the full control effect; potency is the fitted concentration of half-maximal effect; tags give direction and shape of the fitted curve.

Potency, inconclusive:
COc1cc2c(C(=O)N3CCN(c4ccccc4)CC3)c(C)oc2cc1Br 28.2 µM [inhibitor, partial curve, poor fit]
C#Cc1cccc(Nc2nc(NC(C)C)nc3ccsc23)c1 31.6 µM [inhibitor, single point]
CC(C)CN(C(=O)CCNC(=O)c1ccc(Cl)cc1)C1CCS(=O)(=O)C1 (stereo not given) 39.8 µM [inhibitor, single point]
Cc1ccccc1C(=O)Nc1ccc(C(=O)OCc2cc(=O)n3nc(C4CC4)sc3n2)cc1 39.8 µM [inhibitor, single point]
O=C1CSC(=O)N1C(CCc1ccncc1)COc1ccc(-c2cccc([N+](=O)[O-])c2)cc1 (stereo not given) 6.11 µM [inhibitor, full curve]
CCCCN(C(C)=O)c1ccc2c(c1)C1CC2CCN1C(=O)OCc1ccccc1 (stereo not given) 10 µM [inhibitor, partial curve, poor fit]
Cc1ccc(CCc2nnc(SCC(=O)Nc3cc(Cl)ccc3Cl)n2-c2ccccc2)o1 28.2 µM [inhibitor, single point]
Cc1cccc(NC(=O)c2cccc([N+](=O)[O-])c2O)c1C 39.8 µM [inhibitor, single point]
Cc1ccc(C(=O)NCCN2C3=NC[C@H](C)N3C[C@H]2Cc2ccc(O)cc2)cc1Br 22.4 µM [inhibitor, partial curve, poor fit]
O=C(NCc1ccc2c(c1)OCO2)c1ccc2c(=O)n(C3CCCC3)c(=O)[nH]c2c1 31.6 µM [inhibitor, single point]
CC1(C(=O)NCc2ccccc2Br)CCN1Cc1ccc(-c2ccccn2)cc1 (stereo not given) 28.2 µM [inhibitor, single point]
Cc1cccc(COCC(Cc2ccccc2)N2CCN(C(=O)c3ccc(C(F)(F)F)cc3)CCC2=O)c1 (stereo not given) 35.5 µM [inhibitor, single point]
Cc1c2c(n3c(nc4ccccc43)c1C#N)N(CCCN(C)C)CC2 42.3 µM [inhibitor, partial curve, poor fit]
COc1ccc(CN2CCn3ncc(C(=O)Nc4cc(C)cc(C)c4)c3C2=O)cc1 31.6 µM [inhibitor, single point]
COc1cc(/C=C(/C#N)C(=O)Nc2ccc(C)cc2)ccc1Oc1nc(Cl)ncc1F 31.6 µM [inhibitor, single point]
CCNC(=S)Nc1cc2oc3ccccc3c2cc1OC 39.8 µM [inhibitor, single point]
CCC1=NN(C(=O)c2ccc([N+](=O)[O-])cc2)C(O)(c2ccccc2)C1 (stereo not given) 20 µM [inhibitor, single point]
O=C(Nc1nnc(C2COc3ccccc3O2)o1)c1ccc(F)cc1 (stereo not given) 25.1 µM [inhibitor, single point]
CCOc1ccc(CCN2C(=S)N([C@@H](CC(C)C)CN3CCC[C@@H]3CN3C(=S)NC[C@@H]3CC(C)C)C[C@@H]2Cc2ccc(O)cc2)cc1 22.4 µM [inhibitor, single point]
COc1ccc(-c2cc(C(=O)Oc3ccccc3)c3cc(C)ccc3n2)cc1 39.8 µM [inhibitor, single point]
c1ccc(CNc2nc(N3CCN(Cc4ccccc4)CC3)nc3ccccc23)cc1 39.8 µM [inhibitor, single point]
Nc1nonc1-n1nnc(C(=O)N/N=C/c2ccccc2O)c1CN1CCCC1 17.8 µM [inhibitor, partial curve, poor fit]
CC/C(=C(\c1ccc(O)cc1)c1ccc(OCCN(C)C)cc1)c1ccccc1 39.8 µM [inhibitor, single point]
O=C(Nc1ccc(Cl)c(C(F)(F)F)c1)NC1CC2CCCC(C1)N2Cc1ccccc1 (stereo not given) 39.8 µM [inhibitor, single point]
Cc1ccc(NC(=O)c2ccc3c(c2)OCCO3)cc1C 14.1 µM [inhibitor, single point]
CN(C)C=NC(=O)c1[nH]c2ccc(Cl)cc2c1-c1ccccc1 39.8 µM [inhibitor, single point]

Potency, active:
C#CCOCCOCCOCCNc1nc(N2CCN(C(=O)CCCCCCCCCCNC(=O)[C@H](CCCCN)n3cc(C[C@@H](C)CC)nn3)CC2)nc(N2CCN(C(=O)CCCCCCCCCCNC(=O)[C@@H]([C@H](C)O)n3cc(C)nn3)CC2)n1 10 µM

Activity change, negative = inhibition, inactive:
NCC1CC2c3ccccc3C1c1ccccc12 (stereo not given) -22.6%
CCCCC[C@@H](C)N1C[C@H](COCc2ccccc2)Oc2cc(N3CCC[C@H]3C(N)=O)ccc2S1(=O)=O -26.3%
CCCCC(C)(C)[C@H](O)C=C[C@H]1[C@H](O)CC(=O)[C@H]1CC=CCCCC(=O)O 6.8%
COc1ccc(CCCc2nnc(SCC(=O)N/N=C\c3ccc(O)c(OC)c3)o2)cc1C -24.4%
CCOC(=O)c1ccccc1NC(=O)Cn1ncc2c([nH]c3ccccc32)c1=O -11.1%
COc1ccc(-c2cc3c(=O)n(CC(=O)NCc4ccc(Cl)cc4)ncn3n2)cc1 12.8%
CCOC(=O)c1sc(NC(=O)C(CC)Sc2nnc3c4ccccc4n(CC)c3n2)nc1C (stereo not given) 0.599%
CCn1c(=O)n(-c2ccc(C)c(F)c2)c(=O)c2sc3ccccc3c21 -6.92%
Cc1ccc([N+](=O)[O-])cc1S(=O)(=O)N1CCNCC1 -4.82%
O=C(COC(=O)c1ccccc1C(=O)c1ccccc1)Nc1ccc(SC(F)F)cc1 4.35%
Cc1ccc2sc(NC(=O)CSc3nc(C)cc(C)c3C#N)nc2c1 4.97%
N=c1c2c(-c3ccccc3)c(-c3ccccc3)n(Cc3ccco3)c2ncn1CCCO -36.7%
C[C@H](CO)N1C[C@H](C)[C@@H](CN(C)C(=O)Nc2ccc(F)cc2)Oc2ncc(-c3ccc(F)cc3)cc2C1=O 6.43%
